# Measurements: PubChem BioAssay AID504333 (National Center for Advancing Translational Sciences (NCATS), 2011)
# Out of some 360,000 compounds screened, about 16,000 (4.4%) were called active. Inconclusive results, whose numbers are uncertain, are shown with a selection of clear calls. Calls come from the whole dose curve; as a rule, active = well fitted inhibition curve with a large enough effect; inconclusive = small, poorly fitted or top-dose-only effect; inactive = no such curve, though single readings can be large or run the other way. Potencies beside an inconclusive call are fits to weak or partial responses and may not hold up.
# Target: Bromodomain adjacent to zinc finger domain protein 2B (Homo sapiens) (UniProt Q9UIF8)
# Assay: qHTS Assay for Inhibitors of BAZ2B; note: nearly all actives have a fitted effect of over 60% in size
# Settings: AlphaScreen BAZ2B-H3K14Ac peptide displacement; series mostly up to 114 µM
# Summary of the method: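 AlphaScreen luminescence quantifies BAZ2B engagement of H3K14Ac peptide; the protein and biotinylated peptide are both at 50 nM final, buffer PBS pH 7.4 with 0.01% Tween-20, all steps at room temperature.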
# Potency is the fitted concentration of half-maximal effect; tags give direction and shape of the fitted curve.
# Sequence of UniProt Q9UIF8 (Q9UIF8 whole entry, looked up, the tested form may be a part): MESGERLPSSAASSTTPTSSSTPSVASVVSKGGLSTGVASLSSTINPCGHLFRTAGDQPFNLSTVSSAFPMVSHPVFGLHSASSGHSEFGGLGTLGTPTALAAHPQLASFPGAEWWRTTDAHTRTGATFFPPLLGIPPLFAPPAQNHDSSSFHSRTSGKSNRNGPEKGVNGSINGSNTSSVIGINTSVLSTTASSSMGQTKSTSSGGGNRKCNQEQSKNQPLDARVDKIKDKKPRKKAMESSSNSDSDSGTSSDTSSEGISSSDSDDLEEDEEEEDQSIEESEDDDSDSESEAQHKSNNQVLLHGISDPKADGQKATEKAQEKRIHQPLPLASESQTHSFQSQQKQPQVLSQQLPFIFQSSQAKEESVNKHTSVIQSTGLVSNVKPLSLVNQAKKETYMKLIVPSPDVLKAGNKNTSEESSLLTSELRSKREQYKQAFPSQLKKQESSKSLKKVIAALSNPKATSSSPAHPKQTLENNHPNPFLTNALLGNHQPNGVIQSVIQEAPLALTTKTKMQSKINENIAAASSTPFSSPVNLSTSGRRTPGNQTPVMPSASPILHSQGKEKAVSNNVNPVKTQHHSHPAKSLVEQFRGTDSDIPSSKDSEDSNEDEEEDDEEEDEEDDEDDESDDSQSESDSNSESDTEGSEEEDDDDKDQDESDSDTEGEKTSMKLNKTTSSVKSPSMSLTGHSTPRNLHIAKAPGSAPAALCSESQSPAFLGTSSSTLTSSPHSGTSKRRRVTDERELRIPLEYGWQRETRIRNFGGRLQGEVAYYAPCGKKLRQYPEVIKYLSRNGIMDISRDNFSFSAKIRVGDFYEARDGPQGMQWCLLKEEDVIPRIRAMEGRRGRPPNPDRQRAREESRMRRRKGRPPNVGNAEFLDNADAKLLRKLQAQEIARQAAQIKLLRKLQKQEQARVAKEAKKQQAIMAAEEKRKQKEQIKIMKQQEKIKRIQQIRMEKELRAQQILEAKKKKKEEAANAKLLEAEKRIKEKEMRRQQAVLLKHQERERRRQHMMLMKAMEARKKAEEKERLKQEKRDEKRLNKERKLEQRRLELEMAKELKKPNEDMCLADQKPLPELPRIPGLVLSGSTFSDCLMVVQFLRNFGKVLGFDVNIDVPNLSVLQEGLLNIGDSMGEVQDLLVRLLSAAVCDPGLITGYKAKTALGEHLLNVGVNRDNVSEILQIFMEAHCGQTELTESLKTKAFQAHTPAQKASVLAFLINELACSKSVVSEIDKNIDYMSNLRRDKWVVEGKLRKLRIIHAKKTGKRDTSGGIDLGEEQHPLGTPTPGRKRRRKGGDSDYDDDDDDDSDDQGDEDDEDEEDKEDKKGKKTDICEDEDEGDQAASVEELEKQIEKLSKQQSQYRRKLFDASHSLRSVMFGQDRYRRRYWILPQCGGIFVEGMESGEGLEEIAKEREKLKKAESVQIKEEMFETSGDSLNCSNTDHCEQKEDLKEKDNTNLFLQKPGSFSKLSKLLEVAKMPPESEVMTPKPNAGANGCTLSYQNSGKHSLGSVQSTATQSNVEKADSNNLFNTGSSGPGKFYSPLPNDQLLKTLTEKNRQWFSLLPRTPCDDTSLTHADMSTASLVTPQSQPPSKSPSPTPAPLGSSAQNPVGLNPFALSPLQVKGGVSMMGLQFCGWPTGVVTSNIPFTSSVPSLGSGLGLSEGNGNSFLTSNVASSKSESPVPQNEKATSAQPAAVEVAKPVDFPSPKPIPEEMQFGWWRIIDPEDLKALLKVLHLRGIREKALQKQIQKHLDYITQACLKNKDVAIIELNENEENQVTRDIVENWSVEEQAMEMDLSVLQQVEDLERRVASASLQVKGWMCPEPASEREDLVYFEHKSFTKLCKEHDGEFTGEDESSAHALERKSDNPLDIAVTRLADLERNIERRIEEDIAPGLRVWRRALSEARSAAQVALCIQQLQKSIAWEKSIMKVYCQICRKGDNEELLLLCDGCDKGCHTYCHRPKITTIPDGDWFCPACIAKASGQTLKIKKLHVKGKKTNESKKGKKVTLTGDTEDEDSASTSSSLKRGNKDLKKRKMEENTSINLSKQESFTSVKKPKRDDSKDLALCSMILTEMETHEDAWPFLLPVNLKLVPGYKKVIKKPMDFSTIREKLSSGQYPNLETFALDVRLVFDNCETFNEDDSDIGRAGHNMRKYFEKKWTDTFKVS
row,SMILES,Potency
1,Cn1c(C(C#N)C(=O)c2ccco2)nc2ccccc21 (stereo not drawn),"inconclusive: 79.4 µM [inhibitor, single point]"
2,COc1ccc(/C=C2\C(=O)N(c3c(Cl)cc(Cl)cc3Cl)N=C2NC(=O)c2cccc([N+](=O)[O-])c2)cc1,"inconclusive: 89.1 µM [inhibitor, single point]"
3,CCCCNC(=O)[C@@](CC)(ONc1ccccc1C(F)(F)F)c1cccc2ccccc12,"inconclusive: 39.8 µM [inhibitor, full curve, poor fit]"
4,Cc1nnc(C)c2c(C)n(-c3cccc4cccnc34)c(C)c12,"inconclusive: 79.4 µM [inhibitor, partial curve]"
5,O=C(O)CSc1cccc2cccnc12,"inconclusive: 89.1 µM [inhibitor, single point]"
6,COC(=O)C1=C(C(=O)OC)[C@@H]2N(C)c3ccccc3[C@@]23C[C@@H](C(=O)OC)N(C(=O)CC(C)C)C3=N1,"inconclusive: 70.8 µM [inhibitor, partial curve]"
7,O=C(Cc1c(F)cccc1Cl)Nc1ccc(S(=O)(=O)Nc2nccs2)cc1,inactive
8,O=C(C1CCN(S(=O)(=O)c2ccc(Br)s2)CC1)N1CCN(C2CCCCC2)CC1,"inconclusive: 89.1 µM [inhibitor, single point]"
9,O=C(COc1ccccc1[N+](=O)[O-])Nc1ccc(N2CCN(C(=O)c3cccs3)CC2)cc1,"inconclusive: 28.2 µM [inhibitor, single point]"
10,CC(C)N(C(=O)CSc1nnc(NC(=O)c2cccs2)s1)C(C)C,inactive
11,O=C(CSc1nnc(Cc2ccccc2)o1)NCc1ccc2c(c1)OCO2,inactive
12,O=C(CCS(=O)(=O)c1ccccc1)Nc1nnc(C(F)(F)F)s1,"inconclusive: 56.2 µM [inhibitor, partial curve]"
13,Cc1ccc(C)c(N2CCN(S(=O)(=O)c3csc(C(N)=O)c3)CC2)c1,"inconclusive: 79.4 µM [inhibitor, single point]"
14,CC[C@H](C)[C@H](NC(=O)OCc1ccccc1)C(=O)OCC(=O)Nc1ccc(N2CCOCC2)cc1,"inconclusive: 89.1 µM [inhibitor, single point]"
15,CCOC(=O)c1cc(-c2ccc([N+](=O)[O-])cc2)nc2c1c(=O)[nH]c(=O)n2Cc1ccccc1,"inconclusive: 89.1 µM [inhibitor, single point]"
16,CC(C)c1ccc(/C=C2\CC/C(=C\C=N\N(C)C)C2=O)cc1,active: 56.2 µM
17,CCC1CCCCN1c1nc(-c2ccncc2)nc2ccccc12 (stereo not drawn),inactive
18,COc1ccc(C(NC(=O)c2cccnc2)c2cc(Cl)c3cccnc3c2O)cc1OC (stereo not drawn),"inconclusive: 20 µM [inhibitor, single point]"
19,CN(C)c1ccc(/C=N/n2c(-c3ccccc3Br)n[nH]c2=S)cc1,"inconclusive: 44.7 µM [inhibitor, partial curve]"
20,CC(C)NC[C@@H](O)c1ccc(O)c(O)c1,"inconclusive: 56.2 µM [inhibitor, partial curve]"
21,CCN1CCc2c(sc(-n3cccc3)c2C(C)NC(=O)Nc2ccccc2C)C1 (stereo not drawn),"inconclusive: 50.1 µM [inhibitor, partial curve]"
22,Cc1cccc(CC(=O)Nc2cccc(-c3nc4cccnc4s3)c2)c1,inactive

row,SMILES,Potency
1,Cc1cc(C)c2nc(NC(=O)C3CC(=O)N(Cc4ccco4)C3)sc2c1 (stereo not drawn),active: 39.8 µM
2,CCOc1ccc(CCNC(=O)CSc2ncn[nH]2)cc1OCC,inactive
3,O=C(O)c1sc2cc(C(F)(F)F)cnc2c1-c1cccs1,inactive
4,Cc1cccc(N2CCN(CC(O)COc3ccccc3Cl)CC2)c1 (stereo not drawn),"inconclusive: 50.1 µM [inhibitor, partial curve]"
5,C(=N\Nc1ccccn1)/c1ccc(N2CCOCC2)cc1,"inconclusive: 50.1 µM [inhibitor, partial curve]"
6,CCN1CCN(c2ncnc3scc(-c4ccc(C)cc4)c23)CC1,"inconclusive: 89.1 µM [inhibitor, single point]"
7,CCS(=O)(=O)N1CCc2cc(C(=O)Nc3ccc(OC)cc3OC)ccc21,inactive
8,Cc1cccc(C(=O)N/N=C/c2cc(Br)c(Br)o2)c1,"inconclusive: 79.4 µM [inhibitor, single point]"
9,O=C(Nc1nc2n(n1)C(c1ccc(F)cc1)C=C(c1ccccc1)N2)c1cccc([N+](=O)[O-])c1 (stereo not drawn),inactive
10,CCc1cccc(NC(=O)CCS(=O)(=O)c2cc3c4c(c2)CCN4C(=O)CC3)c1,inactive
11,O=C(NCC(c1ccco1)N1CCc2ccccc2C1)c1cccc([N+](=O)[O-])c1 (stereo not drawn),"inconclusive: 89.1 µM [inhibitor, single point]"
12,Cc1nc2ccccc2nc1N/N=C/c1ccc(O)cc1,"inconclusive: 79.4 µM [inhibitor, single point]"
13,O=C(CSc1nnc(CNC(=O)c2ccco2)o1)Nc1ccc(Br)cc1,"inconclusive: 89.1 µM [inhibitor, single point]"
14,Cc1ccc(C(=O)N2c3ccccc3CC2C)o1 (stereo not drawn),"inconclusive: 79.4 µM [inhibitor, single point]"
15,COCCCN1CCN(C2Cc3ccccc3Sc3ccc(Cl)cc32)CC1 (stereo not drawn),"inconclusive: 50.1 µM [inhibitor, partial curve]"
16,COC(=O)c1ccc(C2c3[nH]c4ccccc4c3C[C@H]3C(=O)N(C4CC4)CC(=O)N23)cc1 (stereo partly drawn),"inconclusive: 79.4 µM [inhibitor, single point]"
17,COc1ccc(CCn2nnnc2C(c2ccccc2)N2CCN(C)CC2)cc1OC (stereo not drawn),"inconclusive: 89.1 µM [inhibitor, single point]"
18,CCC(c1nnnn1CCOC)N1CCN(C(=O)c2ccco2)CC1 (stereo not drawn),active: 50.1 µM
19,COc1ccccc1N1CCN(S(=O)(=O)c2ccc(-c3cnc(C4CC4)o3)cc2)CC1,"inconclusive: 44.7 µM [inhibitor, partial curve]"
20,Cc1ccc2[nH]c3c(=O)n(CCc4cnc[nH]4)cnc3c2c1,"inconclusive: 35.5 µM [inhibitor, partial curve]"
21,CCN(CC(=O)Nc1ccc(NC(C)=O)cc1)Cc1c(O)ccc2cc(Br)ccc12,active: 50.1 µM
